This note sets out measurements from PubChem BioAssay (NCI).

Each structure is given as a SMILES string.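 Compound exposure: 48 hours, 5 concentrations, 96-well plates. TGI is the concentration that stops growth completely.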 Some entries of the source have several records that differ or are many. This is not the full list of results. There may be further records. The tests behind the records often covered other concentration ranges, not given here; a value can be the end of its range.

Holding throughout (assay): inhibition of tumour cell growth, NCI panel, 48 h
The test system of assay [1] is SR leukemia.
Assay [2] relates to HL-60(TB) leukemia.
The subject of assay [3] is DMS 114 small cell lung.
Assay [4] deals with HCT-116 colon.
Assay [5] has as its system KM20L2 colon.
Assay [6] deals with SF-268 CNS.
The subject of assay [7] is SK-MEL-5 melanoma.
In assay [8] the test system is COLO 205 colon.
The test system of assay [9] is A498 renal.
Assay [10] relates to RXF 393 renal.
Assay [11] deals with HCC-2998 colon.
For assay [12], the system named is OVCAR-8 ovarian.
Assay [13] relates to SNB-75 CNS.
Assay [14] deals with SF-539 CNS.
The subject of assay [15] is DLD-1 colon.
The test system of assay [16] is NCI-H460 lung.
Assay [17] has as its system MALME-3M melanoma.

For the compound `CC1CCC(NC(=O)N(CCCl)N=O)CC1` (configuration not stated), in assay [1], the TGI is 5.04 µM and 185 µM.

As to `CCC(C)(CC(C)(C)C(=O)NCC(=O)NC(Cc1ccccc1)C(=O)NC(Cc1ccccc1)C(=O)NCC(=O)NC1CC(OC2CC(O)(C(=O)CO)Cc3c(O)c4c(c(O)c32)C(=O)c2c(OC)cccc2C4=O)OC(C)C1O)C(=O)NCC(C)O` (configuration not stated), the TGI in [2] is 3.85 µg/mL and > 150 µg/mL.

Take `COc1cc2c(c(OC)c1OC)-c1ccc(SC)c(=O)cc1C(CO)C2` (configuration not stated): the TGI in [3] is 332 nM and < 10 nM; in [4], 380 nM and > 100 µM; in assay [5], 321 nM and < 10 nM; in assay [6] it was 761 nM and > 100 µM; in [7], 894 nM and > 100 µM; in assay [8] it was 433 nM and < 10 nM. In addition, the TGI in assay [9] was 452 nM and > 100 µM; in assay [10], 588 nM and < 10 nM; in [11], 443 nM and 36.2 nM; in [12], 392 nM and > 100 µM; in assay [13], 198 nM and > 100 µM; in [14], 373 nM and < 10 nM. Further, the TGI in assay [15] was 771 nM and > 100 µM; in assay [16], 785 nM and 15 µM; in assay [17], 925 nM and > 100 µM.
